The text below walks through data of PubChem BioAssay AID1240 (Sanford-Burnham Center for Chemical Genomics, 2008).

Hit rate of the full screen: of about 50,000 compounds, about 800 (1.6%) showed an effect of 50% or more. Some of the results follow.

In this assay the target is Bcl-2-like protein 10 (Homo sapiens) (UniProt Q9HD36). The assay is described as follows: TR3 peptide-Bcl-B binding displacers, biochemical primary FP assay, phenotype converters (AID 1240).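 Note: 0% = Bcl-B with tracer peptide and DMSO and 100% = tracer peptide lacking Bcl-B.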 As to conditions: GST-Bcl-B / FITC-TR3 peptide fluorescence polarization; stronger effect = higher value; compound at 3.75 mg/L. In general terms: In fluorescence polarisation assays a small probe gives low polarisation when free and higher when bound to something large.
Sequence of UniProt Q9HD36 (Q9HD36 whole entry, looked up): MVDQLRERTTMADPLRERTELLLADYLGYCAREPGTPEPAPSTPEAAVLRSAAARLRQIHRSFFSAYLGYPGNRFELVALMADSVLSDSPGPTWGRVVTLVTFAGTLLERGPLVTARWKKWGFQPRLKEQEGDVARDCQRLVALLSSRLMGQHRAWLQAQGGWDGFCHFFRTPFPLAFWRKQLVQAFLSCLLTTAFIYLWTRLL
For `CN1C(=O)C(=O)c2cc(Br)ccc21`, the displacement amounted to 19.2%.

Turning to `CCOc1ccc(NC(=O)CC2S/C(=N\N=C(/C)c3cccc(NC(C)=O)c3)NC2=O)cc1` (stereo not drawn), the displacement is -11%.

As for `Cc1ccc2nc(-c3nonc3N)[nH]c2c1`, the displacement came out at 3.2%.

Consider `Cc1sc2nc(SCC(=O)NCCCN3CCOCC3)n(-c3ccccc3)c(=O)c2c1C`, for which the displacement was 0.4%.

`COc1ccccc1/C=N/n1cnnc1`: the displacement stood at 17.6%.

For `CCCCNCCCCOc1cccc(Cl)c1`, the displacement is 11.8%.

With `COc1ccccc1/C=C1\SC(N2CCCCC2)=NC1=O`, the displacement is -4.9%.

For the molecule `CC(C1CC1)N(Cc1ccccc1)C(=O)c1ccc(F)cc1` (stereo not drawn), the displacement is 9.2%.

Take `O=C(NC(C(=O)c1ccccc1)N1CCCC1)c1ccco1` (stereo not drawn): the displacement was found to be 0.8%.

`O=C(/C=C/c1ccc(-c2ccc(Cl)cc2Cl)o1)Nc1ccc(N2CCOCC2)cc1`: the displacement was 83%.

`COc1ccccc1NC(=O)c1ccccc1NC(=O)c1ccccc1C`: the displacement is -7.2%.

For the molecule `Cc1ccc(/C(O)=C2/C(=O)C(=O)N(CCCCCC(=O)O)C2c2cccc(F)c2)cc1` (stereo not drawn), the displacement is -3.4%.

For `C=CCN1C(=O)/C(=C\c2ccc(CC)cc2)C(=O)NC1=S`, the displacement is -27.5%.

On to `COc1cc(/C=C2\C(=O)NC(=S)N(c3cccc(Br)c3)C2=O)cc(Cl)c1O`, for which the displacement was -1.6%.

Consider `CC1(C)CC(NC(=O)CCc2ccccc2)CC(C)(C)N1`, for which the displacement worked out at 12.3%.

With `CC(C)C1=NN2C(=N)/C(=C/c3ccc(-c4cccc(C(=O)O)c4)o3)C(=O)N=C2S1`, the displacement was -26.4%.

Consider `Cc1cccc(N2CCC(N=CN(C)C)=N2)c1`, for which the displacement worked out at 2.2%.

With `CCOc1ccc(C(=O)COC(=O)CC)cc1`, the displacement was -2.8%.

With `CCOc1ccc(NC2=C(Cl)C(=O)N(c3cccc(Cl)c3)C2=O)cc1`, the displacement stood at 10.1%.

For `O=C(c1ccc(N2CCNCC2)cc1)c1cccc(F)c1`, the displacement was -8.3%.

Consider `Cc1ccc(C23CC4CC(C2)CC(c2csc(N)n2)(C4)C3)cc1`, for which the displacement is -4.6%.

On to `S=c1[nH]cnc2sc3c(c12)CCC3`, for which the displacement was -9.1%.

In the case of `Cc1ccc(/C(O)=C2\C(=O)C(=O)N(CCCC(=O)O)C2c2ccc(Cl)cc2)cc1` (stereo not drawn), the displacement was -11.7%.

As to `Cc1cc(C)n(C(=O)C(C)Oc2ccc(Cl)cc2)n1` (stereo not drawn), the displacement is -4.4%.

Turning to `CSc1ccc(Cl)c(C(=O)Nc2ccc(Cl)cn2)c1`, the displacement was -39.3%.

Take `COc1ccccc1N1C(=O)CC(N2CCN(C(c3ccccc3)c3ccccc3)CC2)C1=O` (stereo not drawn): the displacement worked out at 10.6%.

As for `CCOc1ccccc1N/C(=N\S(=O)(=O)c1ccc(C)cc1)Nc1nc(C)cc(C)n1`, the displacement is -4%.

With `CCOC(=O)c1ccc(-n2c(-c3ccccc3)nc3ccccc3c2=O)cc1`, the displacement is -2.3%.

In the case of `COC(=O)c1c(C)oc2ccc(OCC(=O)c3ccccc3)cc12`, the displacement is 13.2%.

With `COc1ccc(OC)c(NC2=NS(=O)(=O)c3cc([N+](=O)[O-])ccc32)c1`, the displacement was found to be 7.9%.

For `CC1(C)C(c2ccccc2)=NC(c2ccc(C(F)(F)F)cc2)N1O` (stereo not drawn), the displacement was -16.9%.

Regarding `O=C(O)C1C(C(=O)Nc2ccc(Br)cc2)C2C=CC1C21CC1` (stereo not drawn), the displacement was -7.7%.

In the case of `CC(=O)c1ccc(-n2c(C)ccc2C)cc1`, the displacement came to 2.2%.

Consider `CCOc1cc(C=C2C(=O)NC(=O)NC2=O)ccc1OCCOc1ccccc1C`, for which the displacement was 10.3%.

`Nc1cc(-c2cccc(Br)c2)nn1-c1ccccc1`: the displacement is -9.8%.

For the molecule `O=C1NC(=S)NC(=O)C1=Cc1ccc(OCCOc2ccccc2)cc1`, the displacement was -5.2%.

As for `COc1cccc(N2C(=O)C(=O)/C(=C(\O)c3ccccc3)C2c2cccc(F)c2)c1` (stereo not drawn), the displacement is -11.6%.

As for `COc1ccccc1CNC(=O)c1cccc(Cl)c1`, the displacement is -6.1%.

Consider `Cc1n[nH]c(C)c1Sc1ccccc1N=Cc1cc(Cl)ccc1O`, for which the displacement amounted to 0%.

Consider `CCCN1CCC(=NNC(=O)c2cccc(Cl)c2)CC1`, for which the displacement was found to be 3.7%.

For `C=CCN1C(=O)/C(=C\c2ccc(-c3ccccc3Cl)o2)SC1=S`, the displacement is 149%.

Regarding `O=C(Nn1c(=O)c2cc3c(=O)n(NC(=O)c4ccc(O)cc4)c(=O)c3cc2c1=O)c1ccc(O)cc1`, the displacement was determined as 0.1%.

Take `COc1cc(NC(=O)c2cnn3c2NC(c2cc(OC)c(OC)c(OC)c2)CC3C(F)(F)F)cc([N+](=O)[O-])c1` (stereo not drawn): the displacement amounted to 8.1%.

As for `CCC(=S)/C=C1\Sc2ccc(OC)cc2N1CCCS(=O)(=O)O`, the displacement came to 5.8%.

Regarding `CN(C)c1ccc(C=NC2=NN(c3ccccc3)CC2)cc1`, the displacement worked out at 19%.

For the molecule `CC(C)(C)C(=O)CN1C2=NCCN2c2ccccc21`, the displacement is -12.5%.

For the molecule `NC(=O)c1ccc(NC(=O)CCN2C(=O)c3cccc([N+](=O)[O-])c3C2=O)cc1`, the displacement was 4.5%.

With `COc1cc2c(cc1OC)C(c1cccc([N+](=O)[O-])c1)=NCC2`, the displacement was 2.5%.

Turning to `O=C(Nc1ccc(Cl)cc1)/C(=C\c1ccccc1Cl)NC(=O)c1ccccc1`, the displacement was determined as 0.8%.

Take `COc1ccc(C(=O)N2CCN(Cc3cccc(C)c3)CC2)cc1`: the displacement is -21.6%.

As to `Cc1ccc2nc(-c3ccc(OCC(=O)N/N=C/c4ccc([N+](=O)[O-])o4)cc3)cc(-c3ccccc3)c2c1`, the displacement is -16.7%.

Consider `CCC1CCc2c(sc(NC(=O)c3ccccc3Br)c2C(=O)OC)C1` (stereo not drawn), for which the displacement worked out at 0.1%.

With `COc1cccc(N2C(=O)/C(=C/c3ccccc3C(=O)O)SC2=S)c1`, the displacement is -4.7%.

With `COc1ccc(CNC(=O)CSc2nc(-c3ccccc3)c(-c3ccccc3)[nH]2)cc1`, the displacement was -1.3%.

Turning to `Cc1cc(N2C(=O)NC(=O)/C(=C\c3ccc(C(=O)O)cc3)C2=O)ccc1Br`, the displacement is -8.3%.

Turning to `CCc1ccccc1NC(=O)c1nn2c(c1Cl)NC(c1ccc(C)cc1)CC2C(F)(F)F` (stereo not drawn), the displacement was -3.5%.

As to `NS(=O)(=O)c1cccc(NC(=O)COc2ccccc2)c1`, the displacement was determined as 2.5%.

As for `COc1ccccc1C1/C(=C(\O)c2ccccc2)C(=O)C(=O)N1CCN(C)C` (stereo not drawn), the displacement was -22.8%.

For `O=C(NCC1OCCc2ccccc21)c1ccco1` (stereo not drawn), the displacement was -6.5%.

Turning to `Cc1cc(/C=C2\C(=O)NC(=S)N(c3ccc(Cl)cc3)C2=O)c(C)n1C`, the displacement is 29.5%.

In the case of `O=C(Nc1ccccc1C(=O)c1ccccc1)c1ccccc1`, the displacement is -6.4%.

`Cc1ccc(S(=O)(=O)Oc2ccc(/C=C3\SC(N)=NC3=O)cc2Br)cc1`: the displacement came to 1.8%.

On to `CCOc1ccc(C(=O)Nc2ccc(-c3nc4ccc(C)cc4o3)cc2)cc1Cl`, for which the displacement came to 104%.

As to `S=c1[nH]nc(CSc2nc3ccccc3s2)n1-c1ccccc1`, the displacement stood at 14.2%.

Regarding `CCOC(=O)C1=NN(c2ccccc2)C(=O)C1OC(C)=O` (stereo not drawn), the displacement came to 12.9%.

Take `Clc1ccc2nc(N/N=C/c3ccc4ncccc4c3)nc(-c3ccccc3)c2c1`: the displacement was -2.6%.

For the molecule `CC(=O)c1ccc(NC(=O)c2cnn3c(C(F)(F)F)cc(-c4cccs4)nc23)cc1`, the displacement was determined as 7.3%.

For `COc1ccc(C(=O)CC(=O)C(C)(C)C)cc1`, the displacement was 15.1%.

As to `O=C(c1ccccc1)N1CCN(c2ncnc3c2cnn3-c2ccccc2)CC1`, the displacement was determined as 3.8%.

Regarding `O=C1NN(c2cccc(Cl)c2)C(=O)/C1=C\c1ccc(F)cc1`, the displacement stood at 8.1%.

As to `COc1cc(N/N=C(\C)c2ccc(I)cc2)ncn1`, the displacement is -8.4%.

On to `COc1ccc(N2C(=O)/C(=C\c3cc(C)n(-c4ccccc4)c3C)SC2=S)cc1`, for which the displacement worked out at 27.3%.

In the case of `O=C1S/C(=C\c2ccc(Br)cc2)C(=O)N1c1ccc(Cl)cc1`, the displacement was -3.3%.

Regarding `O=C1/C(=C/c2ccccc2[N+](=O)[O-])SC(=S)N1c1cccc(Br)c1`, the displacement turned out to be 11.9%.

On to `O=c1[nH]c(O)c(C=Nc2ccccc2C(F)(F)F)c(=O)[nH]1`, for which the displacement was 47.5%.

Consider `CCOC(=O)c1cccc(NC(=O)c2ccncc2)c1`, for which the displacement came out at 9.1%.

As for `CC(=O)N1CCCC1C(=O)Nc1ccc(C)cc1` (stereo not drawn), the displacement came to 5.8%.

As for `CC1=C(C(=O)OC2CCCCC2)C(c2ccccc2Br)NC(=O)N1` (stereo not drawn), the displacement came to 0.2%.

As for `O=CN1Cc2ccccc2-c2ccccc2C1`, the displacement came to 9.1%.

Regarding `OC1CN=C2CCCc3c2n(c2ccc(Cl)cc32)C1` (stereo not drawn), the displacement stood at 1.2%.

For `CN1CCN(C(=O)c2ccc(F)c(F)c2)CC1`, the displacement was -9%.

Consider `COc1ccccc1C/C(N)=N/OC(=O)COc1ccc2ccccc2c1`, for which the displacement stood at 5.6%.

For `COc1ccc(S(=O)(=O)Nc2cc([N+](=O)[O-])ccc2OC)cc1`, the displacement is 6.6%.

For `COCCOC(=O)c1c(C)oc2ccc(OCc3cccc(F)c3)cc12`, the displacement stood at 8.3%.

As for `O=C(Cn1c2ccccc2c(=O)c2ccccc21)N/N=C/c1ccc(N2CCCC2)c([N+](=O)[O-])c1`, the displacement was 0.2%.

As for `O=C(CSc1ccc(/C=N/NC(=O)c2ccncc2)o1)Nc1ccccc1`, the displacement amounted to 8.9%.

In the case of `O=C(CCNc1ccc(F)cc1)c1cccs1`, the displacement was 5.2%.

For the molecule `COc1ccc(/C(C#N)=C\N2CCOCC2)c(OC)c1`, the displacement is -19.5%.

With `CCCc1nn2c(N)c(/C=C3\C=C(Br)C=CC3=O)c(=O)nc2s1`, the displacement was determined as 6.1%.

Turning to `O=C(Nc1nc(-c2ccc(Br)cc2)cs1)c1cc2ccccc2o1`, the displacement was -0.4%.

In the case of `CCOC(=O)c1c(NC(=O)c2cc3cc(Br)ccc3oc2=O)sc(C(C)=O)c1C`, the displacement turned out to be 31.5%.

On to `O=C1/C(=C/c2ccc(-c3cccc([N+](=O)[O-])c3)o2)SC(=S)N1Cc1ccco1`, for which the displacement was determined as 9.9%.

`O=C(N/N=C/c1ccc(Cl)c([N+](=O)[O-])c1)c1cc2ccccc2o1`: the displacement is 1.4%.

On to `Cc1c(Cl)cccc1NC(=O)/C(C#N)=C/c1ccc(I)o1`, for which the displacement is -14.1%.

Take `O=C(Nc1ncc(Cc2cccc3ccccc23)s1)c1ccc(Cl)cc1`: the displacement is -3.1%.

As for `Cc1ccc(NC(=O)c2cccc(Cl)c2Cl)c([N+](=O)[O-])c1`, the displacement turned out to be 6.6%.

Consider `CC(C)(C)c1ccc2[nH]c3c(c2c1)CCCC3=O`, for which the displacement was 0.7%.

`CCc1nnc(NS(=O)(=O)c2ccc(NC(=O)c3cc4ccccc4cc3OC)cc2)s1`: the displacement turned out to be 12%.

As to `C/C(=N\N=C1\NC(=O)C(CC(=O)Nc2ccc(C(=O)O)cc2)S1)c1ccc([N+](=O)[O-])cc1` (stereo not drawn), the displacement is 13.2%.

For `COCCOC(=O)c1ccc(NC(=O)c2cc3ccccc3oc2=O)cc1`, the displacement is -5.9%.

As to `O=C(CCNC(=O)OCc1ccccc1)Oc1cc2oc(=O)cc(-c3ccccc3)c2cc1Cl`, the displacement is -0.2%.

Take `O=C(O)c1cc(NC(=O)c2ccc(F)cc2)cc(NC(=O)c2ccc(F)cc2)c1`: the displacement is -2%.

For the molecule `CCOC(=O)C1=C(O)/C(=C\c2ccc(OC)cc2)N=C1C`, the displacement turned out to be 4.4%.

Regarding `CC(=O)c1c(C)n(-c2ccc(N(C)C)cc2)c2ccc(O)cc12`, the displacement came out at 0.4%.

As to `O=C1CC(c2ccccc2)CC2=C1C(c1cccc3ccccc13)Nc1ccccc1N2` (stereo not drawn), the displacement stood at 6.1%.

For the molecule `CC1=NN(C(=S)Nc2ccccc2)C(C)(C)C1`, the displacement is 0.5%.

`COc1ccc(Br)cc1C(=O)Nc1ccc(C)cc1[N+](=O)[O-]`: the displacement amounted to 27.4%.

Consider `Cc1ccc(C(=O)N2CCC(C(N)=O)CC2)cc1[N+](=O)[O-]`, for which the displacement was -0.2%.
